Assay results from PubChem BioAssay AID1159614 (National Center for Advancing Translational Sciences (NCATS), 2016).
About 65 (0.1%) of roughly 45,000 compounds were called active. The call rests on the fitted dose curve; in most records, active means well fitted activation curve with a large enough effect; inconclusive means small, poorly fitted or top-dose-only effect; inactive means no such curve, though single readings can be large or run the other way. Some of the results follow.

molecular target: Galactocerebrosidase (Homo sapiens) (UniProt P54803); assay: A Novel Cell-Based Assay to Identify Small Molecules for B -Galactocerebrosidase; conditions: 145M-Twi-hGALC-G270D cells (Twitcher mouse brain line with human GALC G270D), HMU-beta-Gal fluorescence, 48 h; series mostly up to 57.5 µM; activation: at the top concentration; further: 0% is about no effect; nearly all actives have a fitted effect of over 65% in size
How it was run: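 Fluorescence readout: HMU-β-gal cleavage by mutant GALC (0.1 mM final, citrate/phosphate pH 5.2 with 1 mg/mL taurocholate), stopped with carbonate/bicarbonate plus Triton X-100. Cells: murine Twitcher 145M-Twi expressing human G270D GALC; qHTS for activators.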

Chain of UniProt P54803 (P54803 whole entry, looked up): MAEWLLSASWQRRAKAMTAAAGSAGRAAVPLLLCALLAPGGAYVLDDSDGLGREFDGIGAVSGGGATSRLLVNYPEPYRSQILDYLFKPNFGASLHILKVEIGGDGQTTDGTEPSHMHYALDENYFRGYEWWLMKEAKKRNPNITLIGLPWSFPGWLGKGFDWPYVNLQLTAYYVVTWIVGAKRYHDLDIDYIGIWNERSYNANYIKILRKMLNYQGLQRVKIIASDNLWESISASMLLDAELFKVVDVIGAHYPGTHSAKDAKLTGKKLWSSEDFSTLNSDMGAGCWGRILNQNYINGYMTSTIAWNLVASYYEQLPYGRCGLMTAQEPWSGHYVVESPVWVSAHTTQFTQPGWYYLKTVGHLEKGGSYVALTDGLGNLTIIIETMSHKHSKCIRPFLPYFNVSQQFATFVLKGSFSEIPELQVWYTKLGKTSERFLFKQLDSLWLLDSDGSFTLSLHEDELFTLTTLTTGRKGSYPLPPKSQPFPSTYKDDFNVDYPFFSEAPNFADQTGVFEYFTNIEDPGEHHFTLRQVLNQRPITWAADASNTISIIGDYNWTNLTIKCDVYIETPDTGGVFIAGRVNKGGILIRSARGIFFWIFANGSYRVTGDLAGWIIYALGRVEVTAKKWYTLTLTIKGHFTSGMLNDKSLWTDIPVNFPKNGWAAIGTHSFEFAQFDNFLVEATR

activation, inactive:
COc1ccc(C(=O)Nc2cc(C(F)(F)F)ccc2N2CCN(c3ccccc3)CC2)cc1OC -9.22%
COc1ccc(-c2c(C)nn3c4c(cnc23)C(=O)CC(c2ccc(C)cc2)C4)cc1 (configuration not stated) -13.1%
CCN(c1cccc(C)c1)S(=O)(=O)c1nnc(NC(=O)c2cccs2)s1 0.159%
Cc1c(C(=O)Nc2ccccc2Br)oc2ccc(S(=O)(=O)N3CCCCC3)cc12 -18.6%
CCCCn1c(-c2ccc(S(=O)(=O)N3CCOCC3)cc2)csc1=Nc1ccccc1 -38.8%
COc1cccc(NC(=O)Cn2c(=O)n(-c3ccc(CC(=O)NCC4CCCO4)cc3)c(=O)c3ccccc32)c1 (configuration not stated) -14.9%
CCOc1ccccc1NC(=O)c1cccc2c1C(=O)N(C1CCCCC1)C2 -14.9%
CCC(=O)Nc1nnc(S(=O)(=O)N(C)Cc2ccccc2)s1 -5.86%
Cc1cc(C)cc(NC(=O)NCCn2nnc3cc(S(=O)(=O)N(C)C)ccc32)c1 -3.06%
CSc1ncc(Cl)c(C(=O)N(Cc2ccccc2Cl)C2CCS(=O)(=O)C2)n1 (configuration not stated) -16.3%
CCOc1ccc(C(=O)OCc2cc(=O)n3nc(C4CCCCC4)sc3n2)cc1 -6.97%
CCOc1ccc(NC(=O)Cc2csc(COc3cccc(C)c3)n2)cc1 -13.6%
CCOc1ccccc1C1C(C(=O)Nc2ccccc2OC)=C(C)Nc2nc3ccccc3n21 (configuration not stated) -2.2%
Cc1ccc2nc(NC(=O)c3cc(=O)c4cc(C)c(C)cc4o3)sc2c1 -21.9%
CCCN1C(=O)C(NC(=O)c2ccccc2OC)(C(F)(F)F)C(C(=O)OC)=C1C (configuration not stated) -16.4%
Cc1ccc(C)c(NC(=O)CSc2cn(CC(=O)N3CCCC3)c3ccccc23)c1 -1.14%
Cc1cc(C)c(NC(=O)CN(CC(=O)O)CC(=O)O)c(C)c1Br -9.96%
CCc1nnc2c3ccccc3nc(N3CCN(c4ccc(C)cc4C)CC3)n12 -10.2%
CCOc1ccc(NC(=O)Cn2c(C)ccc(C#N)c2=O)cc1 -1.02%
O=C(NCCc1csc(-c2cccnc2)n1)c1cccc(C(F)(F)F)c1 -38.3%
COc1ccccc1CNC(=O)c1ccc(C)c(-n2cnc3cccnc32)c1 7.55%
CSc1ccc(CNC(=O)CCn2ccc3cc(S(=O)(=O)N4CCCC4)ccc32)cc1 -14.6%
COc1ccccc1NC(=O)CSc1nc2c(oc3ccccc32)c(=O)n1-c1ccc(C)cc1 3.41%
CCOC(=O)N1CCc2c(sc3c2c(=O)n(-c2ccc(Cl)cc2)c(=O)n3CC(=O)c2ccc(F)cc2)C1 -13.9%
COc1ccc(NS(=O)(=O)c2nnc(NC(=O)c3ccccc3F)s2)cc1 -9.59%
O=C(CCCn1c(=O)c2cccn2c2cccnc21)NCCc1ccc(Cl)cc1 -8.13%
Cc1cc(Br)ccc1NC(=O)c1cc2c(s1)-c1ccccc1SC2 3.58%
COc1ccc(-c2nn(C)c3sc(C(=O)N4CCN(c5cccc(C)c5C)CC4)cc23)cc1OC -10.9%
COc1ccc(CN2C(=O)C(NC(=O)c3ccc(C)cc3)(C(F)(F)F)N=C2c2ccccc2)cc1 (configuration not stated) -13.8%
CCOC(=O)c1ccccc1NC(=O)CN(c1ccccc1OC)S(=O)(=O)c1ccc(C)cc1 -11.9%
Cc1ccc(CNc2nc3c(S(=O)(=O)c4ccccc4)nnn3c3ccsc23)cc1 -2.3%
COc1cc(/C=C/c2nc(C#N)c(NC3CCCCC3)o2)cc(OC)c1OC -13.4%
COc1ccc(-n2ccnc(NCCc3ccc(S(N)(=O)=O)cc3)c2=O)cc1 1.81%
Cc1ccc(C)c(N2CCN(C(=O)CN3C(=O)COc4ccc(S(=O)(=O)N5CCCCCC5)cc43)CC2)c1 -7.99%
CCOC(=O)c1c(NC(=O)c2noc3c2CC(C(C)(C)C)CC3)sc2c1CCCC2 (configuration not stated) -22.8%
Cc1cc(C)c(Cn2c(C)c(CNCCCc3ccccc3)c(C(=O)O)c2C)c(C)c1 -16%
CC(=O)c1sc2c(c1C)c(=O)n(-c1ccc(Cl)cc1)c(=O)n2Cc1ccc(Cl)cc1 -12.9%
CC(NC(=O)Cn1ncc2c3ccccc3n(Cc3ccc(F)cc3)c2c1=O)c1ccccc1 (configuration not stated) -17.1%
O=C(NCC(c1cccs1)S(=O)(=O)c1cccs1)c1ccccc1 (configuration not stated) -33.4%
CCOC(=O)c1ccc(NC(=O)C2Cc3ccccc3CN2S(=O)(=O)c2ccc(Cl)cc2)cc1 (configuration not stated) -10.4%
COc1ccc(Cl)cc1NS(=O)(=O)c1cc(-c2cc(C)no2)ccc1C -13.2%
Cc1cc(Br)ccc1NC(=O)CCS(=O)(=O)c1cccc2nonc12 7.88%
CCC1CN(C(=O)N2CCC(C(=O)NCc3ccc(C)o3)CC2)c2cc(C)ccc2O1 (configuration not stated) -17.5%
CCOC(=O)N1CCN(S(=O)(=O)N2CCCC(C(=O)NCc3cccc(OC)c3)C2)CC1 (configuration not stated) -5.21%
CC(=O)N1CCC(N(Cc2ccco2)C(=O)Nc2cccc(C)c2)CC1 -3.92%
CCOC(=O)c1cc2c(=O)n3ccccc3nc2n(CC2CCCO2)c1=NC(=O)c1cccc(C(F)(F)F)c1 (configuration not stated) 0.549%
COc1ccc(-c2cc(C(=O)Nc3c(C(=O)c4ccc(Cl)cc4)oc4ccccc34)no2)cc1 -14.8%
Cc1cccc(NC(=O)c2cnn(-c3ccccc3)c2-n2cccc2)c1C -47%
CC(=O)N1CCCc2cc(S(=O)(=O)N3CCC(C(=O)NCCC(C)C)CC3)ccc21 -18.5%
O=C(NC1CC(=O)N(c2ccc(F)cc2)C1)c1cc2ccccc2o1 (configuration not stated) -9.88%
Cc1nc2c(C(=O)NCc3ccccc3Cl)cnn2c(C)c1Cc1c(F)cccc1Cl -19.6%
CCOC(=O)c1nnc2c(-c3ccc(OC)cc3)c(C)nn2c1N -1.05%
COc1ccccc1NC(=O)n1ncc2c(C)cccc21 -27.2%
CN1CCN(C(c2ccccc2)c2sc3nc(-c4ccco4)nn3c2O)CC1 (configuration not stated) -8.61%
COc1ccc(OC)c(C2CC(=O)c3c([nH]c(C(=O)OCC4CCCCC4)c3C)C2)c1 (configuration not stated) -17.8%
Cc1cccc(CCn2c(=O)c3ccccc3n(Cc3cccc(F)c3)c2=O)c1 -9.08%
O=NN(CCCl)C(=O)NCCCl -7.45%
CC1CCc2nc(NC(=O)COc3ccc(C(C)(C)C)cc3)sc2C1 (configuration not stated) -16.7%
CCOc1ccc(S(=O)(=O)Nc2ccc3oc(C)c(C(=O)OCCOC)c3c2)cc1 -10.5%
O=C(Cc1ccc(NC(=O)N2CCSc3ncccc32)cc1)NCc1ccccc1Cl -16.9%
CCCC(=O)N1CC(=O)Nc2ccc(Cl)cc2C1c1ccc(F)cc1 (configuration not stated) -28.6%
CC(=O)c1cccc(NC(=O)CCS(=O)(=O)c2cc(Br)cc3c2N(C(=O)C2CC2)CC3)c1 -17.3%
Cc1csc2nc(COC(=O)COc3ccccc3F)cc(=O)n12 -9.9%
Cn1c(C(=O)NCc2ccc(F)cc2)cc2c(=O)n(C)c3ccccc3c21 -12.3%
COc1ccc(CCNC(=O)Cn2nnc(-c3ccc(C(F)(F)F)cc3)n2)cc1OC -22%
CCCn1c(=O)c2sccc2n2c(CCCC(=O)N3CCN(c4ccccc4)CC3)nnc12 -7.04%
CCS(=O)(=O)c1ncc(N(Cc2ccco2)Cc2sccc2C)c(C(=O)Nc2cc(C)ccc2C)n1 16.6%
Cc1nc2ccn(Cc3cccnc3)c(=O)c2cc1C(=O)Nc1ccc(OC(F)(F)F)cc1 -20.1%
Cc1ccccc1NS(=O)(=O)c1ccc2[nH]cc(C(=O)N3CCCC3)c(=O)c2c1 -22.3%
COCCn1c(SCC(=O)Nc2ccc(F)c(Cl)c2)nc2c(oc3ccccc32)c1=O -6.09%
COc1ccc(C(=O)NCCc2sc(-c3cccc(F)c3)nc2C)cc1 -3.44%
CCOc1ccccc1NC(=O)CCS(=O)(=O)c1cccc2nsnc12 2.29%
Cc1c2cnn(CC(=O)N3CCN(c4ccccc4)CC3)c(=O)c2c(C)n1Cc1ccc(F)cc1 -3.51%
Cc1ccc(C)c(Cn2c(C(C)NC(=O)c3ccc(F)cc3)nc3ccccc32)c1 (configuration not stated) -6.21%
CCN(c1ccccc1)S(=O)(=O)c1cc(-c2onc(C)c2C)ccc1OC -7.87%
Cc1cccc(-c2noc(CCCC(=O)NCc3ccco3)n2)c1 -23.9%
Cc1ccc(Nc2ncnc3c2cnn3-c2ccccc2)c(C)c1 -13.6%
O=C(O)Cc1ccc(OCCNC[C@H](O)c2ccccc2)cc1 -9.66%
CC(=O)Nc1ccc(/C=N/NC(N)=S)cc1 -13.3%
COCCn1c(CCC(=O)Nc2cc(C)ccc2C)nc2cccnc21 -12.8%
COc1ccc(N2CCN(C(=O)c3c(C)oc4ncnc(N5CCCCC5)c34)CC2)cc1 -10.6%
CCOCCCNC(=O)C(c1ccccc1)N(Cc1cccs1)C(=O)c1ccc(NC(C)=O)cc1 (configuration not stated) -8.49%
COc1cccc(N2C(=O)C(CC(=O)Nc3ccc(Cl)cc3)N(Cc3ccc4c(c3)OCO4)C2=O)c1 (configuration not stated) -8.85%
CCc1cccc(NC(=O)c2nnn(Cc3ccc(SC)cc3)c2N)c1 3.86%
CCn1c(=O)c2sccc2n2c(CCCC(=O)N3CCN(c4ccc(OC)cc4)CC3)nnc12 5.02%
O=C1CC(c2ccccc2)Cc2[nH]c(=O)c(C(=O)Nc3ccc(OC(F)(F)F)cc3)cc21 (configuration not stated) -13.1%
Cc1cccc(N2CCN(C(=O)C3CCCN(S(=O)(=O)c4cccc5nsnc45)C3)CC2)c1C (configuration not stated) -14.4%
CC(C(=O)O)c1cccc(C(=O)c2ccccc2)c1 (configuration not stated) -9.53%
O=C(Nc1ccc(Br)cc1)C1CCCN(S(=O)(=O)c2ccc(Br)s2)C1 (configuration not stated) -10.1%
O=C(CCCCCn1c(=O)[nH]c2ccccc2c1=O)NCc1cccc(Cl)c1 -23.7%
Cc1ccc(NC(=O)CN2C(=O)C(c3ccc(F)cc3)=NC23CCCCC3)c(C)c1 -13.4%
CCc1ccccc1NC(=O)C(CC)Sc1ncnc2c1sc1ccccc12 (configuration not stated) -4.81%
CCOc1ccccc1CNC(=O)C1CCN(S(=O)(=O)c2cccc3nonc23)CC1 2.84%
Cn1c(=O)c2c(SCC(=O)N3CCc4ccccc43)nc(-c3cccc(F)c3)nc2n(C)c1=O -5.07%
O=c1[nH]c2ccc(NCc3ccc(-c4cccc(Cl)c4)o3)cc2[nH]1 -12.3%
CCOc1ccc(S(=O)(=O)N2CCN(c3cc(Cl)ccc3Cl)CC2)c2ccccc12 -20.5%
Cc1ccnc(NS(=O)(=O)c2ccc(NC(=O)C(C)(C)Oc3ccc(Cl)cc3)cc2)n1 -12.3%
